These results are taken from PubChem BioAssay AID488969 (Vanderbilt High Throughput Screening Facility, 2010).

Over roughly 110,000 compounds, “z-score” has its median near -0.1; the highest 2% begin near 2. The list shows a part of the results. Calls of active or inactive are those of the source.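 The calls were made as follows: active = z-score in the third read window above 3 or below -3; inactive = the rest.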

This assay has as its target Metabotropic glutamate receptor 8 (Rattus norvegicus) (UniProt P70579). In words: mGluR8 Gi/Go-coupled signaling modulation – cell-based, rat, thallium flux, HTS, primary screen (AID 488969). The settings on record: HEK293 rat mGluR8, GIRK (G protein-gated inwardly rectifying potassium channel) thallium flux, FluoZin2; at 10 µM; stronger effect = higher value; submaximal glutamate (EC20) added with thallium.
Sequence of UniProt P70579 (P70579 whole entry, looked up): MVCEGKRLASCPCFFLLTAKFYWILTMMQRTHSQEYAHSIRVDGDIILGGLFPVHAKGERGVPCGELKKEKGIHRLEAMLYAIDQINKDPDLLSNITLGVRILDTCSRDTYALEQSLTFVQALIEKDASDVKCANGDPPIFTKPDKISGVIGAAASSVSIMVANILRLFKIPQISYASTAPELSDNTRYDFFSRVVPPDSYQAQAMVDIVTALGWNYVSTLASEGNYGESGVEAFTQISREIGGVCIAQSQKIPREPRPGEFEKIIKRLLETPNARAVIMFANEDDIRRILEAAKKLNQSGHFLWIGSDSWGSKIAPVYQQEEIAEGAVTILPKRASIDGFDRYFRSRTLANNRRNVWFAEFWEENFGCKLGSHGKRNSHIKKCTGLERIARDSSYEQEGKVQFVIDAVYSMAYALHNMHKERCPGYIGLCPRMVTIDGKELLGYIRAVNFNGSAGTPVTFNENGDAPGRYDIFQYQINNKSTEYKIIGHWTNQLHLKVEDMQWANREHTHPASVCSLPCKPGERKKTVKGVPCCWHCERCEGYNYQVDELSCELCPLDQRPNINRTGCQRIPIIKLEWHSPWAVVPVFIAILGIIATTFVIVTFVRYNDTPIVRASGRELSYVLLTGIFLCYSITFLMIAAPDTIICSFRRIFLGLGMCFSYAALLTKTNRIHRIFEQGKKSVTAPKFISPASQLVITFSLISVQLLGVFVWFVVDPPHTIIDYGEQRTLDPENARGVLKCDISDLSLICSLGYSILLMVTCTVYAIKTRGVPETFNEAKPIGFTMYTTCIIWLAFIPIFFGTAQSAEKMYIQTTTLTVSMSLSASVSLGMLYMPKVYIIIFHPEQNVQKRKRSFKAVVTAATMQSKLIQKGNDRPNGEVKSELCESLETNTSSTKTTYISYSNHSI
In turn, `CC(C)(C)c1n[nH]c(=S)n(N)c1=O` showed a z-score of -0.328.

As for `N#Cc1cn(CCOc2ccc(F)cc2)c2ccccc12`, the z-score was -0.28.

In the case of `O=C(COC(=O)c1cccc(S(=O)(=O)NCc2ccccc2)c1)c1ccc2c(c1)OCCO2`, the z-score is -0.271.

As to `Fc1ccc(F)c(CN2CCN(c3ncccn3)CC2)c1`, the z-score was -0.52.

On to `COC(=O)C1=C(C)NC(=S)N(C(C)=O)C1c1ccccc1` (stereo not given), for which the z-score was -1.61.

In turn, `COc1ccc(C(=O)NC(Nc2ccccc2)C(Cl)(Cl)Cl)cc1` (stereo not given) had a z-score of -0.177.

`Cn1c(N/N=C2\CCCc3ccccc32)nc2c1c(=O)n(Cc1ccccc1)c(=O)n2C`: the z-score is -0.306.

Take `C=CCNc1nc(Nc2ccc([N+](=O)[O-])cc2)nc(OCC)n1`: the z-score was -0.211.

In turn, `COc1ccccc1CC(NC(C)=O)C(=O)N1CCN(C(=O)Nc2ccccc2Cl)CC1` (stereo not given) registered a z-score of -0.275.

As for `COc1ccc(Cn2nnnc2C(c2cc3cc(C)cc(C)c3[nH]c2=O)N2CCOCC2)cc1` (stereo not given), the z-score came out at 0.309.

Consider `Cc1ccc2c(c1)nnn2C1CCN(S(C)(=O)=O)CC1`, for which the z-score was -0.0619.

`Cc1cccn2c(=O)c3cc(C(=O)N4CCCc5ccccc54)n(C)c3nc12` gave a z-score of -0.141.

Regarding `O=C1CCSc2cccc3cccc(c23)N1`, the z-score was -1.36.

For the compound `N/C(=N\c1nc(C(F)(F)F)cc(=O)[nH]1)Nc1ccc(Cl)cc1`, the z-score was -0.203.

`COc1cccc2[nH]c3c(N4CCC(C(N)=O)CC4)ncnc3c12` yielded a z-score of 0.0357.

`NC(=O)c1ccccc1NC(=O)/C=C/c1c(Cl)cccc1Cl` registered a z-score of -0.0879.

`CCc1cc(C(=O)NCCN(C)C)cs1` yielded a z-score of 0.168.

Consider `Cc1ccc(NC(=O)c2ccc(OCC3CCCO3)cc2)c(C)c1` (stereo not given), for which the z-score is -0.207.

In turn, `COc1ccc(CNC(=O)/C=C/c2cc([N+](=O)[O-])ccc2OC(F)F)cc1` returned a z-score of -0.527.

In turn, `CCNC(=S)N1CCN(CCN=CC2=C(O)CC(c3cccs3)CC2=O)CC1` (stereo not given) came in with a z-score of -0.239.

Turning to `Cc1cccc(CS(=O)(=O)Cc2ccc(C(=O)NCCCN3CCCC3)o2)c1`, the z-score was 0.19.

`O=C(CCS(=O)(=O)c1ccccc1)Nc1ccc(-c2nc3ccccc3s2)c(O)c1` came in with a z-score of -0.367.

`N#Cc1cc2c(nc1SCC(N)=O)CCCCC2` registered a z-score of -0.0763.

`O=C(NCCCN1CCC(Cc2ccccc2)CC1)C1CC(=O)N(C2CCCC2)C1` (stereo not given): the z-score was 0.137.

As to `O=C(NCC1(c2ccccc2)CCCC1)c1cccc(Br)c1`, the z-score was -0.577.

`CSc1nc2ccc(NS(=O)(=O)c3c(Cl)cccc3Cl)cc2s1` showed a z-score of -0.352.

As for `Fc1cccc2sc(Nc3nc4cc5c(cc4s3)OCO5)nc12`, the z-score was active: 5.54.

For `CCc1ccccc1OCC(=O)N(CC)CC(=O)NCc1ccc(F)cc1`, the z-score was -0.108.

Regarding `c1ccc2c(c1)c1c3n2CCNC3CCC1` (stereo not given), the z-score turned out to be 0.738.

`Cc1cc(Nc2ccc(F)cc2)nc(N)n1` returned a z-score of -0.23.

As to `CCc1ccc(S(=O)(=O)N2CC(=O)Nc3ccccc32)cc1`, the z-score was -0.195.

`Nc1nc2n(c1C(=O)c1ccccc1)CCC2`: the z-score stood at 0.00409.

In turn, `Cc1ccc(C)c(OCC(=O)NCC(C)C)c1C` yielded a z-score of -0.237.

In the case of `CCn1cc([N+](=O)[O-])nc1C`, the z-score is -0.182.

`COc1ccccc1C(=O)NC(CCSC)C(=O)NCC(c1ccco1)N(C)C` (stereo not given) yielded a z-score of 0.912.

The compound `CC12CCC(C(=O)Nc3cccc(NC(=O)C45CCC(C)(C(=O)O4)C5(C)C)n3)(OC1=O)C2(C)C` displayed a z-score of 0.184.

Take `CN(C)CCOc1ncnc2c1oc1ccccc12`: the z-score is -0.0266.

`CCOC(=O)/C(=C/C=C/c1ccccc1)NC(=O)c1ccccc1` showed a z-score of -0.198.

`C=CCn1c(SCC(=O)N(CC)CC)nc(O)cc1=O` gave a z-score of 0.412.

With `Fc1cccc(F)c1CN1CCN(c2ncccn2)CC1`, the z-score is -0.0517.

`Cc1cc(C)n(Cc2ccccc2)c(=O)c1S(=O)(=O)c1ccccc1`: the z-score amounted to 0.054.

As to `CCOP(=O)(OCC)C(NC(=O)Nc1ccc(Cl)cc1)C(N)=O` (stereo not given), the z-score is -0.302.

`CCOC(=O)CSc1nc(-c2ccc3c(c2)OCO3)ccc1C#N`: the z-score was -0.00752.

With `CCOC(=O)c1cnc2scnn2c1=O`, the z-score is -0.153.

In turn, `COc1ccccc1N1CCN(C(=O)CCn2c(=O)[nH]c3ccccc3c2=O)CC1` had a z-score of -0.352.

On to `C=CCN(CC=C)C(=S)NC(=O)c1ccc(C)c(Br)c1`, for which the z-score was active: 15.3.

In the case of `CN(C)S(=O)(=O)N1CCN(CC(O)COc2ccc3cc(Br)ccc3c2)CC1` (stereo not given), the z-score is 0.146.

Regarding `Cc1cc(C(=O)OCC(=O)NC2CCS(=O)(=O)C2)c(C)n1-c1ccccc1` (stereo not given), the z-score is -0.776.

As for `O=C(N/N=C/c1cn(-c2ccccc2)nc1-c1cccs1)c1ccncc1`, the z-score is 0.323.

The compound `COCc1[nH]nc2c1C(c1sccc1C)C(C#N)=C(N)O2` (stereo not given) came in with a z-score of -0.751.

`N=C1S/C(=C\c2ccccc2)C(=O)N1c1ccc(F)cc1` yielded a z-score of 0.0891.

In turn, `COc1ccc(CCNS(=O)(=O)c2ccc3c(c2)OCCO3)cc1OC` displayed a z-score of 0.185.

As for `CCOC(=O)C(NCc1ccco1)(NC(=O)c1ccc(OC)cc1)C(F)(F)F` (stereo not given), the z-score is -0.102.

Regarding `O=C(CSc1nc2c(sc3ccccc32)c(=O)n1CCCN1CCOCC1)NC1CCCC1`, the z-score was -0.172.

Regarding `CC1CN(C2CCCCC2)c2nc3c(c(=O)[nH]c(=O)n3C)n2C1` (stereo not given), the z-score was -0.343.

Turning to `CC(C)NC(=O)/C(=C/c1cn(-c2ccccc2)nc1-c1cccc([N+](=O)[O-])c1)NC(=O)c1ccccc1`, the z-score is -0.769.

The compound `O=C(COC(=O)[C@@H]1CC(O)CN1S(=O)(=O)c1ccccc1[N+](=O)[O-])Nc1ccc2ccccc2c1` (stereo not given in full) gave a z-score of 0.813.

Compound `Cc1cc(/C=C2/NC(=O)NC2=O)c(C)n1-c1ccccn1` showed a z-score of -0.389.

In turn, `O=C(CCN1CCN(CC(=O)Nc2ccccc2Cl)CC1)Nc1ccccc1F` yielded a z-score of -0.181.

`CCCCOc1ncnc2c1[nH]c1ccc(OC)cc12` registered a z-score of 0.111.

Turning to `O=C(Cc1ccccc1F)Nc1cccc2cccnc12`, the z-score is -0.168.

As for `CCN(CC)S(=O)(=O)c1cccc(C(=O)N[C@H](C(=O)O)C(C)C)c1`, the z-score was -0.173.

Regarding `N=c1c2c(ncn1Cc1ccco1)Oc1c(ccc3ccccc13)C2c1ccccc1` (stereo not given), the z-score amounted to 0.538.

The compound `CCOC(=O)Cn1c(=O)oc2cc(S(=O)(=O)NC(C)c3ccccc3)ccc21` (stereo not given) displayed a z-score of 0.114.

The compound `CCOC(=O)Cn1c(=O)c2c(nc(Br)n2Cc2ccccc2Cl)n(C)c1=O` showed a z-score of -0.225.

As to `COc1ccc(C2C3=C(CC(C)(C)CC3=O)OC(N)=C2[N+](=O)[O-])cc1` (stereo not given), the z-score was -0.21.

`CCOc1ccc(N(C)S(=O)(=O)c2ccc3[nH]cc(C(=O)NCC4CCCO4)c(=O)c3c2)cc1` (stereo not given) yielded a z-score of -0.352.

On to `COc1ccc(/C=C/C(=O)N/C(=C\c2ccco2)C(=O)NCCc2nc3ccccc3[nH]2)cc1`, for which the z-score was -0.806.

Turning to `CCOC(=O)N/N=C(\C)c1ccc(C)c([N+](=O)[O-])c1`, the z-score is -0.144.

For `COc1ccc([N+](=O)[O-])cc1NC(=O)CCc1ccccc1`, the z-score was -0.451.
